{"source": "paper PMC4336329", "about": "(PLoS ONE, 2015)", "note": "Hit rate of the full screen: of about 310,000 compounds, about 2,200 (0.71%) showed an effect of 50% or more. Effects have a minus sign here. The list shows a part of the results.", "data": [{"target": "human ether-à-go-go-related gene (hERG) potassium channel (human, UniProt Q12809)", "sequence (Q12809 whole entry, looked up)": "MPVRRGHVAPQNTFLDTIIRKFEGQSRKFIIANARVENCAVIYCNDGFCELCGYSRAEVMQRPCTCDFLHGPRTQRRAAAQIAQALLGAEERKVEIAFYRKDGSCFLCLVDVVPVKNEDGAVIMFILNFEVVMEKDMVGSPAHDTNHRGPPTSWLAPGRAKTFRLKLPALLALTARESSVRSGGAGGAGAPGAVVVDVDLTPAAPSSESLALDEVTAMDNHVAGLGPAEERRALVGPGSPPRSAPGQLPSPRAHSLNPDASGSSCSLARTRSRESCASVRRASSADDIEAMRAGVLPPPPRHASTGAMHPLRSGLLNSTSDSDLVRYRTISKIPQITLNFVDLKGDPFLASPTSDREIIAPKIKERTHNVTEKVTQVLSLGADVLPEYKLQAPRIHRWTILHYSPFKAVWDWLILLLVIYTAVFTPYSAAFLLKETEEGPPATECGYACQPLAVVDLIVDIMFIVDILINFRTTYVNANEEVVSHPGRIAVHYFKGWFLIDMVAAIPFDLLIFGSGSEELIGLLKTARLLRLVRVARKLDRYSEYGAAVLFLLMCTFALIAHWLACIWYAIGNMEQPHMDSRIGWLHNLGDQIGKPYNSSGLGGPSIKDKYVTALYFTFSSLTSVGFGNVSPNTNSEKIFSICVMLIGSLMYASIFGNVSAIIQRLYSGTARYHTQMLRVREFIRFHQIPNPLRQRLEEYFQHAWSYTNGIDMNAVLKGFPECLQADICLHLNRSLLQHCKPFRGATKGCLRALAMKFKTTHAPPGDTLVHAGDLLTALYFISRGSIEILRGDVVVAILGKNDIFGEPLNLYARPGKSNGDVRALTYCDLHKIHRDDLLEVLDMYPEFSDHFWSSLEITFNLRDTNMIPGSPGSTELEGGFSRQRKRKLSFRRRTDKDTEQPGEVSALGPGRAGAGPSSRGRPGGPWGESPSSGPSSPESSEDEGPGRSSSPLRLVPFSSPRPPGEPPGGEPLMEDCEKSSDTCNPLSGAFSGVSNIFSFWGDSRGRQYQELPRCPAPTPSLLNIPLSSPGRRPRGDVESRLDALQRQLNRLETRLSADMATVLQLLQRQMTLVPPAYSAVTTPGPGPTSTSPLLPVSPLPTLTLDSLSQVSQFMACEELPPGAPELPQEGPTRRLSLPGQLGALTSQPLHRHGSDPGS", "assay": "primary screen, population patch clamp on CHO cells stably expressing hERG", "units": {"hERG current change (%, negative = inhibition) at 1uM": "%"}, "values": [{"molecule": "Cc1oc(-c2ccccc2)cc1C(=O)NC1CCN(Cc2ccccc2)CC1", "hERG current change (%, negative = inhibition) at 1uM": 15.3}, {"molecule": "CC1CCC(C(=O)NC(C(=O)Nc2ccccn2)C(C)C)CC1", "note": "(stereo not drawn)", "hERG current change (%, negative = inhibition) at 1uM": 12.8}, {"molecule": "Cl.Nc1c2c(nc3ccccc13)CCCC2.O", "hERG current change (%, negative = inhibition) at 1uM": -11.8}, {"molecule": "CN(CC(=O)Nc1ccc(F)cc1)C(=O)c1ccccc1OCc1ccc(F)cc1", "hERG current change (%, negative = inhibition) at 1uM": -2.45}, {"molecule": "C=CCc1ccc(OC)cc1", "hERG current change (%, negative = inhibition) at 1uM": 11.4}, {"molecule": "CC(C)(C)CNC(=O)[C@]1(C)CCC[C@@]2(C)C3CC[C@@]4(C)C[C@]3(CCC21)CC4=O", "note": "(stereo partly drawn)", "hERG current change (%, negative = inhibition) at 1uM": 10.2}, {"molecule": "CC(=O)c1ccc(OCc2cc(C(=O)NCCn3nc(C)cc3C)no2)cc1", "hERG current change (%, negative = inhibition) at 1uM": 11.4}, {"molecule": "COc1ccc(-c2nc3c(s2)CN(S(C)(=O)=O)CC3)cc1OC", "hERG current change (%, negative = inhibition) at 1uM": 11.7}, {"molecule": "COc1ccc(-c2oc(NC(C)=O)c(C#N)c2-c2ccc(OC)cc2)cc1", "hERG current change (%, negative = inhibition) at 1uM": -1.68}, {"molecule": "COc1ccc(/C=N/N2C(=O)c3ccccc3C2=O)cc1", "hERG current change (%, negative = inhibition) at 1uM": 7.26}, {"molecule": "O=C(Nn1c(Cc2cccs2)nc2ccccc2c1=O)c1ccc(F)c(F)c1", "hERG current change (%, negative = inhibition) at 1uM": 11}, {"molecule": "Cc1ccc(N2CCN(C(=O)c3nn(C)c4c3CS(=O)(=O)c3ccccc3-4)CC2C)cc1", "note": "(stereo not drawn)", "hERG current change (%, negative = inhibition) at 1uM": -25.4}, {"molecule": "CN(C)c1nc2n(c(=O)n1)C(C#N)CS2", "note": "(stereo not drawn)", "hERG current change (%, negative = inhibition) at 1uM": 9.32}, {"molecule": "Cc1ccc(-c2cnc3ccccc3n2)cc1C", "hERG current change (%, negative = inhibition) at 1uM": 8.14}, {"molecule": "C=CCc1ccc(OCCCCN2CC(C)OC(C)C2)c(OC)c1.O=C(O)C(=O)O", "note": "(stereo not drawn)", "hERG current change (%, negative = inhibition) at 1uM": 7.55}, {"molecule": "O=C(Cc1ccccc1)NC(=S)Nc1cc(C(F)(F)F)ccc1Cl", "hERG current change (%, negative = inhibition) at 1uM": 14.8}, {"molecule": "COc1ccc(OCC(O)Cn2c(=N)n(Cc3ccccc3)c3ccccc32)cc1.Cl", "note": "(stereo not drawn)", "hERG current change (%, negative = inhibition) at 1uM": -76.6}, {"molecule": "CCCCN(CC)Cc1c(C)[nH]c2c(ccc3ccccc32)c1=O", "hERG current change (%, negative = inhibition) at 1uM": -49.6}, {"molecule": "COC(=O)NCC(c1ccco1)N1CCN(c2ccc(F)cc2)CC1", "note": "(stereo not drawn)", "hERG current change (%, negative = inhibition) at 1uM": 9.2}, {"molecule": "CC1(c2ccccc2)NC(=O)N(N)C1=O", "note": "(stereo not drawn)", "hERG current change (%, negative = inhibition) at 1uM": 13.7}, {"molecule": "COc1ccc(Cc2nnc(SCC(=O)Nc3cc(Cl)ccc3C)[nH]c2=O)cc1", "hERG current change (%, negative = inhibition) at 1uM": 5.69}, {"molecule": "O=C(COc1cc2oc(=O)c3c(c2cc1Cl)CCC3)NCC(O)c1ccccc1", "note": "(stereo not drawn)", "hERG current change (%, negative = inhibition) at 1uM": 21.8}, {"molecule": "Cn1c(=O)c2c(nc(N3CCN(C(=O)c4ccco4)CC3)n2CCSc2ncccn2)n(C)c1=O", "hERG current change (%, negative = inhibition) at 1uM": -17.4}, {"molecule": "Cc1cc(NC(=O)C(C)SCC(=O)Nc2cc(C(F)(F)F)ccc2N2CCCCC2)no1", "note": "(stereo not drawn)", "hERG current change (%, negative = inhibition) at 1uM": 7.23}]}]}
